# Hit rate of the full screen: of about 310,000 compounds, about 2,200 (0.71%) showed an effect of 50% or more. Effects have a minus sign here. This is one part of the list.
# Target: human ether-à-go-go-related gene (hERG) potassium channel (human, UniProt Q12809)
# Assay: primary screen, population patch clamp on CHO cells stably expressing hERG
# human ether-à-go-go-related gene (hERG) potassium channel, sequence (Q12809 whole entry, looked up): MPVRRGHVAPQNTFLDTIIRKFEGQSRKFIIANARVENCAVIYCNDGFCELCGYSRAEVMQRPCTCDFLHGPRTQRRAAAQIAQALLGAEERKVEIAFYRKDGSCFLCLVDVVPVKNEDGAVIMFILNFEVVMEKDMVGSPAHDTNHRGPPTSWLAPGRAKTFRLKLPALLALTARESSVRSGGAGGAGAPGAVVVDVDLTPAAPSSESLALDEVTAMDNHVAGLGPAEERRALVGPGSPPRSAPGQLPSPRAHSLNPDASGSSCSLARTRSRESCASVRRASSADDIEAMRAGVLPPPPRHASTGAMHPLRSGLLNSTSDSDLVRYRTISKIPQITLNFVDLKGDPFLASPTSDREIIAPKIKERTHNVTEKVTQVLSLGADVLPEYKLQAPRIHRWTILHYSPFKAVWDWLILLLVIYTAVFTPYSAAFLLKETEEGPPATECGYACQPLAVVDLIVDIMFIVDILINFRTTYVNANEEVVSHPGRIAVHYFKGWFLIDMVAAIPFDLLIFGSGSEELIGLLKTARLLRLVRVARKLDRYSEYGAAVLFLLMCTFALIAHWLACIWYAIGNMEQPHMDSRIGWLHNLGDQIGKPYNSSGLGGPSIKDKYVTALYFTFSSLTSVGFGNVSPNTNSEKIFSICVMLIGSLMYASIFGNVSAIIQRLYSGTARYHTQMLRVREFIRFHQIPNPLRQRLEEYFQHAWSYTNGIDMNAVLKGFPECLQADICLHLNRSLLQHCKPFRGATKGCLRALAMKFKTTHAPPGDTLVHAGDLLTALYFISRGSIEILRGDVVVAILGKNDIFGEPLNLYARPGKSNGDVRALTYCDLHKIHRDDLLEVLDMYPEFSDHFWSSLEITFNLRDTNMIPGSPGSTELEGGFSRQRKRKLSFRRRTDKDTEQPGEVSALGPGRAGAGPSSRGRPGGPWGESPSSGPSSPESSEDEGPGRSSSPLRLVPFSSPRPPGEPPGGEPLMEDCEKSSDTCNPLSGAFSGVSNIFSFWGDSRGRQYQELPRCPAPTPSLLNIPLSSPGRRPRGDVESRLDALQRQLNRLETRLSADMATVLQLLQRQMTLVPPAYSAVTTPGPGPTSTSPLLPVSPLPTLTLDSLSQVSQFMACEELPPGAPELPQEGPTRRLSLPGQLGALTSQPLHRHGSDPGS
row,SMILES,"hERG current change (%, negative = inhibition) at 1uM [%]"
1,Cc1ccnc(NC(=O)c2cnc(Cl)c(Cl)c2)c1,11.2
2,COc1ccc(CNC(=O)Cn2nc(Cc3cccnc3)c3ccccc3c2=O)cc1,-7.98
3,O=C(C1CCCN(S(=O)(=O)c2ccccc2)C1)N1CCN(c2ccccc2)CC1 (stereo not shown),-12.7
4,COc1cccc(-c2nn3c(-c4cccc(C)c4)nnc3s2)c1,14.4
5,Cn1cnnc1SCC(=O)NC1CCCN(Cc2ccccc2F)C1 (stereo not shown),12.3
6,Cc1cc(NS(=O)(=O)c2ccc(NC(=O)CSc3nc4ncccc4[nH]3)cc2)nc(C)n1,11.9
7,Cc1c(Nc2cc(N3CCOCC3)c3nonc3c2[N+](=O)[O-])c(=O)n(-c2ccccc2)n1C,23.4
8,Cc1ccc(CNC(=O)C(OC(=O)c2ccco2)C(C)C)cc1 (stereo not shown),10.6
9,CC(=O)N1CCc2cc(S(=O)(=O)CCC(=O)NCCc3ccc(C)cc3)ccc21,15.4
10,O=C(N/N=C1\CC2CC=CC12)c1ccc(COc2ccccc2)cc1 (stereo not shown),8.26
11,Cc1ccc(N)cc1-n1c(C)ccc1C,8.1
12,CC(=O)N1CCc2c(sc(NC(=O)CS(=O)(=O)c3ccc(F)cc3)c2C(N)=O)C1,20.3
13,O=C(/C=C/c1ccccc1)OCCCCN=C1NS(=O)(=O)c2ccccc21,10.1
14,CN(C)Cc1c(C(=O)N/N=C/C=C/c2ccccc2)nnn1-c1nonc1N,2.15
15,Cc1ccc(C)c(N2C(=O)C3C4C=CC(CC4)C3C2=O)c1 (stereo not shown),13.9
16,COc1ccc(CNc2nc(C)cc(C)c2C#N)cc1,14.8
17,O=C(COc1ccccc1)NCC(=O)N/N=C/c1ccc(O)cc1O,-0.632
18,c1cncc(-c2nc(-c3cccs3)cs2)c1,11.7
19,O=C(c1ccco1)N1CCCSC1=Nc1ccccc1,18.4
20,COc1ccc(NC(=O)CSCc2cc(=O)n3cc(C)sc3n2)cc1,14.1
21,CCN(CC)CCn1c(SCC(=O)Nc2cccc(OC)c2)nc2c(sc3ccccc32)c1=O,-33.1
22,C=CCn1c(C)cc(C(=O)Cn2nc(C(=O)O)c3ccccc3c2=O)c1C,5.09

row,SMILES,"hERG current change (%, negative = inhibition) at 1uM [%]"
1,Cn1c(SCc2cccc([N+](=O)[O-])c2)nc2ccccc2c1=O,9.43
2,CC(C)N(C(=O)COC(=O)[C@H](C)NC(N)=O)c1ccccc1,15.4
3,CC(C)c1cc(NCCCN2CCOCC2)n2c(nc3ccccc32)c1C#N,-55.7
4,O=C(CCCOc1ccc(Cl)cc1Cl)Nc1ccc(O)cc1C(=O)O,23.1
5,CCN(CC)C(=O)CSc1nc2c(sc(=S)n2-c2ccccc2OC)c(=O)n1-c1ccccc1,16.1
6,CCNC(=O)COc1ccc(OCc2ccccc2)cc1,4.71
7,COc1ccccc1NC(=O)CCSc1nnc(-c2ccc(O)cc2)o1,10.4
8,O=C(Nc1ccccc1N1CCOCC1)C1CCN(S(=O)(=O)c2ccc(F)cc2)CC1,5.77
9,N=c1c(S(=O)(=O)c2ccc(Cl)cc2)cc2c(=O)n3ccccc3nc2n1CCN1CCOCC1,-13.1
10,Cc1ccccc1NC(=O)c1cc(S(=O)(=O)N2CCOCC2)cs1,8.1
11,COc1ccc(S(=O)(=O)N2CCOCC2)cc1NC(=O)COc1ncnc2ccccc12,12.4
12,O=C(Nc1cccnc1Cl)c1cc(-c2cccc(O)c2)on1,4.37
13,COC(=O)C1CCN(C(=O)c2cc(OC)c(OC)c(OC)c2)CC1,17.5
14,O=C(O)c1occc1CSc1ccccc1,20.3
15,O=C(Cc1ncc(C(F)(F)F)cc1Cl)N1CCN(c2cccc(Cl)c2)CC1,-7.4
16,Cc1cc(/C=C2\C(=N)N3N=CSC3=NC2=O)c(C)n1Cc1ccccc1,1.22
17,O=C(c1cc(-c2ccc(O)cc2)on1)N1CCCCCC1,8.87
18,O=C(Nc1cccc(C(F)(F)F)c1)c1cc[n+]([O-])cc1,15.9
19,COCCCn1nnnc1SCC(=O)Nc1nc2ccccc2s1,11.6
20,CCOC(=O)c1c(NC(=O)CN2C(=O)NC3(CCCCCC3)C2=O)sc(C)c1-c1ccc(C)cc1,7.74
21,CC1CCN(C(=O)COC(=O)/C=C/c2ccc(Br)o2)CC1,10.5
22,COc1cc(CN2CCCCCC2)cc(Br)c1O,16.3

row,SMILES,"hERG current change (%, negative = inhibition) at 1uM [%]"
1,Cc1ccc(N2CCN(S(=O)(=O)c3nnc(NC(=O)c4ccccc4)s3)CC2)cc1,17.1
2,O=C1c2cc(S(=O)(=O)NCCO)ccc2-c2ccc(S(=O)(=O)NCCO)cc21,6.34
3,CC1CC(N(C(=O)c2ccco2)c2ccccc2)c2ccccc2N1C(=O)c1ccco1 (stereo not shown),17.3
4,O=C1OCC(c2ccccc2)=C1c1ccc(S(=O)(=O)N2CCOCC2)s1,3.09
5,CCOC(=O)c1c(-c2ccccc2)oc2ccc(OCC(=O)O)cc12,6.24
6,O=C(COc1ccc(Br)cc1)NCCNC(=O)c1cccnc1,5.89
7,CSc1ccccc1C(=O)Nc1c(C)cccc1C,10.9
8,Cc1cc(C)cc(NC(=O)COC(=O)CCc2ccc(S(=O)(=O)N3CCOCC3)cc2)c1,5.96
9,CCCOc1ccc(C2/C(=C(\O)c3c(C)[nH]c(C(=O)OC)c3C)C(=O)C(=O)N2CCN(C)C)cc1 (stereo not shown),10.9
10,COc1ccc(-n2nc3c(c2NC(=O)Cc2cccc(C)c2)CS(=O)C3)cc1 (stereo not shown),3.52
11,Nc1cccc(C(=O)Nc2ccc3nc(-c4cccnc4)[nH]c3c2)c1,6.12
12,O=C(O)c1cccc(NC(=O)C2CC(=O)N(Cc3ccccc3)C2)c1 (stereo not shown),11.4
13,Cc1cccc(NC(=O)CCCN2C(=S)NC(C)(C)CC2C)c1C (stereo not shown),1.93
14,Cn1c(SC2=CS(=O)(=O)c3ccccc32)nc2ccccc21,8.64
15,Cc1cccc(NC(=O)C2Cc3ccccc3O/C2=N\O)c1 (stereo not shown),11.7
16,Cc1ccc(C2(c3noc(CN(C)Cc4ccccn4)n3)CCCC2)cc1,8.03
17,O=C(CSc1nnnn1C1CCCCC1)Nc1cccc(NC(=O)c2ccco2)c1,7.65
18,CC1C(=O)N2CCCc3cc(NC(=O)C(=O)NCc4ccccn4)cc1c32 (stereo not shown),8.33
19,COc1ccccc1C(=O)NCc1ccc2c(c1)OCO2,4.62
20,CN(C(=O)COc1ccc(C(C)(C)C)cc1)C1CCS(=O)(=O)C1 (stereo not shown),-10.4
21,O=C(NCc1ccco1)C(Cc1ccccc1)N1C(=O)c2ccccc2C1=O (stereo not shown),5.71
22,COC(=O)C1=C(C)NC(=O)/C1=C\c1cc(C)n(-c2ccc(F)cc2)c1C,7.49

row,SMILES,"hERG current change (%, negative = inhibition) at 1uM [%]"
1,CC(O)(CS(=O)(=O)Cc1ccccc1)C(=O)Nc1cccc(C(F)(F)F)c1 (stereo not shown),0.555
2,Cc1cc(C(=O)NCC(C)C)c2ccccc2n1,15.1
3,O=C(c1ccc([N+](=O)[O-])cc1)N1CCN(C2=NS(=O)(=O)c3ccccc32)CC1,-12.2
4,CC(C)C(NC(=O)CC12CC3CC(CC(C3)C1)C2)C(=O)O (stereo not shown),6.39
5,O=C(CC1Sc2ccccc2NC1=O)NCc1cccc(Cl)c1 (stereo not shown),13.6
6,COc1cc2c(cc1OC)CN(S(=O)(=O)c1ccccc1F)CC2,9.63
7,CCOc1ccc(/C=C2\CCC(C3CCCC3)C2=O)cc1OC (stereo not shown),16.8
8,COc1ccc(OC)c(-c2csc(NC(=O)Cc3ccccc3F)n2)c1,12.9
9,NS(=O)(=O)c1cccc(NC(=S)NCc2ccccc2)c1,8.87
10,CCCSc1nc2c(c(=O)n1-c1ccc(OCC)cc1)SCC2,15.2
11,CC1CCN(S(=O)(=O)c2ccc3c(c2)CCN3C(=O)CCC(=O)O)CC1,11.4
12,CS(=O)(=O)c1ccc(NS(=O)(=O)c2ccc3ccccc3c2)cc1,12
13,Clc1ccc(C2CC(c3cccs3)n3ncnc3N2)c(Cl)c1 (stereo not shown),4.09
14,CC(=O)Nc1ccc(S(=O)(=O)NC2=C(N3CCN(Cc4ccccc4)CC3)C(=O)c3ccccc3C2=O)cc1,15.3
15,CCOC(=O)N1CCC(NC(=O)c2cc(S(=O)(=O)N3CCCCC3)ccc2F)CC1,13.3
16,O=C(CN1CCOCC1)N/N=C/c1ccc(C(=O)O)cc1,7.67
17,Cc1ccccc1-n1nc(C)c2cc(C(=O)NC3CC3)sc21,2.92
18,O=C(COC(=O)c1c[nH]c(=O)[nH]c1=O)Nc1ccccc1Br,10.9
19,CN(C)c1nc(N)nc(-c2cccnc2)n1,2.93
20,Fc1ccc(CNCCc2ccccc2F)cc1,12.1
21,Cc1ccc(N2C(=S)NC3c4cc(Cl)ccc4OC2(C)C3C(=O)N(C)C)cc1 (stereo not shown),17.9
22,Cc1ccc(S(=O)(=O)Cc2ccc(C(=O)N3CCC(C(N)=O)CC3)o2)cc1,22.5
